Reference: PubChem BioAssay (NCI)
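Cultured in 96-well plates, cells were exposed to test compound for 48 hours across five concentrations. GI50 is the concentration that inhibits growth by half.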 Not every entry of the source has a single result; some have several. This is not the full list of results. There may be further records. For some assays here: Records of one sample usually come from different ranges of test concentrations, not given here; some values may only mark the edge of a range. For some assays here: Values given together are repeated measurements across runs, samples, wells, individuals or studies. What stands in brackets tells the records apart. Letters hold for one entry only.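 TGI denotes the concentration required for complete inhibition of growth.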

Key:
Test in all cases: NCI anticancer screen, dose series, 48 h
[1] = test system: EKVX NSCLC
[2] = test system: MALME-3M melanoma
[3] = test system: RPMI-8226 leukemia
[4] = test system: KM20L2 colon
[5] = test system: HL-60(TB) leukemia
[6] = test system: SK-MEL-2 melanoma
[7] = test system: CCRF-CEM leukemia
[8] = test system: MOLT-4 leukemia
[9] = test system: T-47D breast
[10] = test system: HOP-92 NSCLC

Structure (SMILES) | TGI [1] | GI50 [2] | TGI [3] | TGI [4] | TGI [5] | TGI [6] | TGI [7] | TGI [8] | TGI [9] | TGI [10]
CCC/C(=N\NC(=S)N1CC2CCC(CC2)C1)c1ccccn1 | 164 nM and 2.87 µM | 1.16 µM and 50.6 nM | 663 nM and 12.7 nM | 136 nM and 2.78 µM | 572 nM and 11.9 nM | 221 nM and 2.82 µM | 933 nM and 39.8 nM | 4.11 µM and 86.9 nM | – | –
Cc1nc(-c2cn3c(n2)-c2ccc(-c4cnn(C(C)(C)C(N)=O)c4)cc2OCC3)n(C(C)C)n1 | – | 41.3 nM [sample A, mean of 2 tests] and 662 nM [sample B, mean of 2 tests] | – | – | – | – | – | – | 1.45 µM [sample A, mean of 2 tests] and 36.5 nM [sample B, 1 test] | > 26.9 µM [sample A, mean of 2 tests] and 1.88 µM [sample B, mean of 2 tests]
